Some of the results follow. Sequences were assembled here from the parent chain. Inactive controls read about 0.05.
B1: TEV protease; numbered along this chain (parent)
chain: MGESLFKGPRDYNPISSSICHLTNESDGHTTSLYGIGFGPFIITNKHLFRRNNGTLVVQSLHGVFKVKDTTTLQQHLVDGRDMIIIRMPKDFPPFPQKLKFREPQREERICLVTTNFQTKSMSSMVSDTSCTFPSGDGIFWKHWIQTKDGQCGSPLVSTRDGFIVGIHSASNFTNTNNYFTSVPKNFMELLTNQEAQQWVSGWRLNADSVLWGGHKVFMVKPEEPFQPVKEATQL

Variants of: B1
Test: raw area under fraction-flipped curve 0-4 h after induction (AUC4h, not background-subtracted), DNA-recorder readout of cleavage of the substrate (dimensionless); higher = more cleavage of the substrate by the protease variant
Conditions: temperature: 34 °C; time window: 0-4 h after rhamnose induction
Protocol: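 In vivo DNA recorder in E. coli TOP10(DE3) ΔrhaA at 34 °C. Each TEVp single-site mutant (parent TEVp 0) is paired with a single-site variant of the 7-mer TEVs (canonical ENLYFQ|S). The substrate sits between flexible linkers in a Bxb1-sfGFP-TEVs-SsrA fusion, so cleavage stabilises Bxb1 and speeds flipping of a recombination array, read by NGS. The value is the raw area under the fraction-flipped curve over 0-4 h after rhamnose induction (AUC4h), with ≥20 reads per time point. It is not background-subtracted; inactive controls average about 0.047.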
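Note: Bxb1 expression induced with 0.2% (w/v) L-rhamnose at OD600 near 0.5, cultures sampled hourly, flipped fraction per protease–substrate barcode pair counted by paired-end Illumina sequencing.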

| Variant | area with substrate ENLYFAS | area with substrate ENLYFCS | area with substrate ENLYFDS | area with substrate ENLYFES | area with substrate ENLYFFS | area with substrate ENLYFHS | area with substrate ENLYFIS | area with substrate ENLYFLS | area with substrate ENLYFMS | area with substrate ENLYFNS | area with substrate ENLYFPS | area with substrate ENLYFRS | area with substrate ENLYFSS | area with substrate ENLYFTS | area with substrate ENLYFVS | area with substrate ENLYFWS | area with substrate ENLYFYS | area with substrate ENLYFGS | area with substrate ENLYFKS |
| --- | --- | --- | --- | --- | --- | --- | --- | --- | --- | --- | --- | --- | --- | --- | --- | --- | --- | --- | --- |
| F38L | 0.0626 | 0.0563 | 0.0564 | 0.0564 | 0.0645 | 0.0538 | 0.0522 | 0.0617 | 0.0577 | 0.0621 | 0.0526 | 0.0542 | 0.0516 | 0.054 | 0.0526 | 0.0534 | 0.0508 |  |  |
| F38A | 0.0711 | 0.0525 | 0.0514 | 0.0408 | 0.0446 |  | 0.0502 |  | 0.0492 | 0.0736 | 0.0513 |  |  |  | 0.0531 | 0.0388 |  |  |  |
| F38M | 0.058 | 0.0581 |  | 0.0526 | 0.0659 | 0.068 | 0.0522 |  | 0.0553 | 0.0579 | 0.0614 |  |  | 0.0579 | 0.0568 | 0.0507 | 0.057 | 0.0655 | 0.0551 |
| F41L | 0.0448 | 0.066 | 0.0521 | 0.0658 | 0.0716 | 0.0436 | 0.0593 |  | 0.0675 | 0.0547 | 0.0554 | 0.0802 | 0.06 | 0.061 |  | 0.0602 | 0.0589 | 0.0623 | 0.0613 |
| F41V | 0.0577 |  |  | 0.0639 | 0.0486 | 0.059 | 0.0496 |  | 0.084 | 0.0529 | 0.0252 | 0.0542 | 0.0254 | 0.0523 | 0.0558 | 0.0762 | 0.0966 |  |  |
| K46Y | 0.0496 | 0.0594 | 0.0462 | 0.054 | 0.0574 |  |  |  | 0.0568 | 0.0554 | 0.0522 | 0.0744 |  | 0.0567 | 0.0668 | 0.0511 | 0.0416 | 0.0574 | 0.0578 |
| K46H | 0.0583 | 0.0594 | 0.047 |  | 0.0683 |  | 0.0576 | 0.0576 | 0.0599 | 0.0654 | 0.0559 | 0.0626 | 0.0579 | 0.0595 |  |  | 0.0502 |  | 0.0544 |
| K46L | 0.057 | 0.037 | 0.0558 | 0.0682 | 0.0635 | 0.0621 | 0.0513 | 0.0555 | 0.058 |  | 0.063 | 0.0502 | 0.0694 | 0.0626 | 0.0495 | 0.055 |  |  | 0.0573 |
| R51L | 0.0584 | 0.0604 | 0.0601 | 0.067 |  | 0.0519 | 0.0596 |  | 0.0635 | 0.0692 | 0.0696 |  | 0.0674 | 0.0637 |  | 0.0406 | 0.0637 | 0.0664 | 0.0593 |
| I19F | 0.051 | 0.0632 | 0.0649 | 0.0553 | 0.0706 | 0.065 | 0.0563 | 0.0561 | 0.0602 | 0.0437 | 0.0687 | 0.0598 |  | 0.0687 | 0.0547 | 0.0877 | 0.0536 |  | 0.0584 |
| I19L | 0.0695 | 0.0358 | 0.0603 | 0.072 | 0.072 | 0.0599 | 0.0605 |  | 0.0682 | 0.045 | 0.0552 | 0.079 | 0.0614 | 0.0626 |  | 0.0518 |  | 0.0736 | 0.067 |
| I19E | 0.0485 | 0.0438 |  | 0.0415 | 0.0525 | 0.0421 | 0.0469 | 0.0564 | 0.101 |  | 0.0401 | 0.0568 | 0.0121 | 0.0436 | 0.0421 | 0.0403 |  |  |  |
| N45K | 0.0546 | 0.0546 |  | 0.0539 | 0.0693 | 0.0446 | 0.0257 |  | 0.0525 |  | 0.0676 |  | 0.0507 | 0.0512 | 0.0523 |  | 0.0525 |  |  |
| N45A | 0.0557 |  |  | 0.058 | 0.0747 | 0.0702 | 0.0428 | 0.0586 | 0.0599 |  | 0.0595 | 0.0827 | 0.0594 | 0.0873 | 0.0635 | 0.0543 | 0.0574 |  | 0.0643 |
| H47V | 0.063 | 0.0657 | 0.0565 | 0.0628 | 0.0703 | 0.0406 |  | 0.0507 | 0.0652 |  | 0.0609 | 0.06 | 0.0603 | 0.0714 | 0.0572 | 0.0551 | 0.0565 |  | 0.0586 |
| H47I | 0.0648 | 0.056 |  | 0.052 | 0.067 | 0.0519 | 0.0559 |  | 0.0541 | 0.0618 | 0.0594 | 0.0558 | 0.0574 |  | 0.0637 | 0.0458 | 0.0648 | 0.0443 | 0.0696 |
| I43C | 0.0588 |  | 0.0574 | 0.0579 | 0.0685 | 0.0568 | 0.0501 |  | 0.0641 | 0.0559 | 0.0564 | 0.0548 | 0.0521 | 0.0629 | 0.0427 | 0.0682 |  | 0.0317 | 0.0574 |
| I43T | 0.0539 | 0.0626 | 0.0429 | 0.0552 | 0.0561 | 0.0393 | 0.0503 |  | 0.0571 | 0.0551 | 0.0601 | 0.0525 | 0.0585 | 0.0513 |  | 0.0558 | 0.0534 | 0.0697 | 0.0565 |
| I43P | 0.032 | 0.0418 | 0.0518 | 0.0495 | 0.0494 | 0.054 | 0.0439 | 0.0412 | 0.0394 |  | 0.0456 | 0.0292 | 0.03 | 0.0377 | 0.0452 |  | 0.0492 | 0.0423 | 0.0458 |
| G28P | 0.0559 | 0.0565 |  | 0.0653 | 0.064 | 0.0705 | 0.0608 | 0.0545 |  |  | 0.069 |  |  | 0.0406 | 0.0526 |  | 0.0438 |  | 0.0688 |
| G28R | 0.0551 | 0.0625 | 0.0583 | 0.0746 | 0.0829 |  | 0.0476 | 0.0612 | 0.0514 |  | 0.0532 |  | 0.0598 | 0.0785 | 0.0522 | 0.0476 |  |  | 0.0588 |
| G28A | 0.0707 |  | 0.0562 | 0.0499 |  | 0.0561 |  |  | 0.0618 | 0.0642 | 0.0564 | 0.0534 |  | 0.049 | 0.017 | 0.0347 | 0.0585 | 0.0654 |  |
| G28W | 0.0602 | 0.0476 | 0.0623 | 0.0514 | 0.0609 | 0.0577 | 0.0516 | 0.038 | 0.0583 | 0.054 | 0.0677 | 0.0662 | 0.0539 | 0.0641 | 0.054 |  |  |  | 0.0578 |
| G28E | 0.0583 | 0.0371 | 0.0355 | 0.0577 | 0.0704 |  | 0.0634 |  | 0.0692 | 0.0653 | 0.0611 |  |  | 0.0505 | 0.0527 |  | 0.0355 |  |  |
